Source: the BET-seq Pho4 binding data (Le et al. 2018)
Some of the results follow. Values were computed here from the reads of four pooled replicates and scatter widely.

Molecular target: T1, Pho4 (S. cerevisiae) (UniProt P07270)
T1 sequence: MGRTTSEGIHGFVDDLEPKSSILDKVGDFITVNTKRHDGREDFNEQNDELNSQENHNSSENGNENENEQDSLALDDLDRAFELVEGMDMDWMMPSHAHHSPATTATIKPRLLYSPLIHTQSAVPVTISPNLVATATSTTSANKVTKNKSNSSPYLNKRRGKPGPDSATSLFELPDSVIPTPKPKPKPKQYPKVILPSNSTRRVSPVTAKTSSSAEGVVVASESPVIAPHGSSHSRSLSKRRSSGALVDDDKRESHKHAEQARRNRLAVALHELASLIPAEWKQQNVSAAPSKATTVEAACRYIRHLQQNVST
Assay: relative binding free energy (BET-seq); higher = weaker binding
Settings: reference: library average

| Sequence | relative binding free energy [kcal/mol] |
| --- | --- |
| TAGATCACGTGGTTTC | 0.21 |
| CGAGTCACGTGAGGGG | 0.37 |
| GAATGCACGTGTCGGT | 0.14 |
| AGTGACACGTGTTTAA | -0.09 |
| AGGAGCACGTGTTCGT | -0.21 |
| ATGGGCACGTGAGTGG | 0.18 |
| TTGGGCACGTGTATAG | -0.08 |
| TTGGACACGTGCGTGG | -0.05 |
| AATTTCACGTGGGTGC | 0.2 |
| GTATTCACGTGTCGAG | 0.22 |
| GATATCACGTGAGTAT | 0.47 |
| CGGAGCACGTGAGGGC | 0.15 |
| TGCAGCACGTGTTGGA | -0.03 |
| AAATTCACGTGGTTTT | 0.28 |
| TTTTGCACGTGAAATC | 0.33 |
| TTAAGCACGTGTTTAA | -0.16 |
| CGGGTCACGTGTGGGC | 0.22 |
| GTGAGCACGTGTATAG | -0.09 |
| AGTTCCACGTGCAGTG | 0.18 |
| TCTGACACGTGTTGGG | 0.09 |
| GGAGACACGTGGAGTT | 0.17 |
| TTAAGCACGTGGGGCG | -0.14 |
| AAGGACACGTGTGTGT | 0 |

| Sequence | relative binding free energy [kcal/mol] |
| --- | --- |
| TAGATCACGTGATATG | 0.23 |
| TAGTTCACGTGTTTCT | 0.39 |
| TTAGTCACGTGTGGTC | 0.11 |
| AAGGGCACGTGTGCTA | -0.04 |
| GAGGGCACGTGATGAG | 0.17 |
| GGGTGCACGTGATCAG | 0.15 |
| TGACACACGTGGCGTG | 0 |
| TCAATCACGTGCGTGT | 0.13 |
| AGATGCACGTGCTTGT | -0.15 |
| TTCGCCACGTGTGTTA | 0.02 |
| TGAGACACGTGCAGTT | 0.14 |
| TGATGCACGTGGGTAG | -0.19 |
| GAGGTCACGTGGTTTG | 0.13 |
| CATGGCACGTGGAGGC | 0.04 |
| GTATTCACGTGTAGGT | 0.16 |
| ATCGACACGTGGTGGG | -0.1 |
| TTAGTCACGTGAATGG | 0.26 |
| GTTTTCACGTGTGTTC | 0.38 |
| GGGCGCACGTGGGTGG | -0.13 |
| TCTGGCACGTGGTTCT | -0.15 |
| AGGTTCACGTGCGGGC | 0.33 |
| TATTTCACGTGTCATG | 0.18 |
| GTAGGCACGTGCAATG | -0.07 |

| Sequence | relative binding free energy [kcal/mol] |
| --- | --- |
| GTTAGCACGTGTGCTA | -0.05 |
| ATTATCACGTGCTGGG | 0.15 |
| GTTATCACGTGAAATT | 0.25 |
| CGTGGCACGTGGTATG | -0.35 |
| TTGGTCACGTGGGTAG | -0.04 |
| AGGTACACGTGTTATA | -0.05 |
| AAAGTCACGTGGGCGG | -0.02 |
| ATTTTCACGTGTTGGA | 0.24 |
| GTTGTCACGTGCGGTC | 0.02 |
| ATCGACACGTGTTAGG | 0.02 |
| AATTTCACGTGCAGGT | 0.24 |
| GATGGCACGTGCGTCG | -0.05 |
| GAGGTCACGTGGGAAG | 0.16 |
| CGATTCACGTGCGGGT | 0.09 |
| ATCGGCACGTGGAGGA | -0.09 |
| GTTGGCACGTGCGTTA | -0.12 |
| CAGTTCACGTGGGCGT | 0.16 |
| GTGTGCACGTGGACTA | -0.05 |
| GTGGTCACGTGCTGTT | 0.03 |
| CTTGGCACGTGTTGTT | 0.02 |
| ATTAGCACGTGAGTGA | 0.13 |
| CGCGTCACGTGAGTTG | 0.21 |
| TGCGGCACGTGGTACG | -0.31 |

| Sequence | relative binding free energy [kcal/mol] |
| --- | --- |
| GGGGACACGTGTAGGG | -0.06 |
| GGAGGCACGTGGGGCC | -0.18 |
| GGGTGCACGTGCTAGA | -0.07 |
| GTTAACACGTGTGATA | 0.13 |
| TTTAACACGTGGCTTA | 0.18 |
| TTGAGCACGTGGCATT | -0.21 |
| TTCATCACGTGATGGT | 0.25 |
| TTATTCACGTGAGGAG | 0.29 |
| TGACTCACGTGGGGAT | 0.03 |
| ACAAGCACGTGGGGGT | -0.22 |
| GGTTGCACGTGACGCT | 0.14 |
| AGAGGCACGTGGGTGA | -0.22 |
| GTTTTCACGTGTAATC | 0.22 |
| TAAGGCACGTGGTTGT | -0.13 |
| TTGAGCACGTGAGTAA | 0.19 |
| GGTGGCACGTGTCCTT | 0.1 |
| TATTACACGTGAATAG | 0.43 |
| ATGCACACGTGTGGGG | 0.09 |
| GTGTACACGTGGTGGC | 0.15 |
| GTCAGCACGTGATATG | 0.13 |
| AGTTGCACGTGTAGCA | 0.04 |
| GTGCGCACGTGGGCAT | -0.04 |
| TTGTGCACGTGAACTA | 0.23 |

| Sequence | relative binding free energy [kcal/mol] |
| --- | --- |
| CGAGGCACGTGCGGGA | -0.15 |
| ATGAACACGTGGGGAT | -0.2 |
| TAGATCACGTGAATGT | 0.29 |
| ATGGTCACGTGTCATG | 0.13 |
| GGTCGCACGTGTTCGG | -0.01 |
| TTGGCCACGTGGTCGG | -0.13 |
| TGTTGCACGTGCTGTT | -0.03 |
| TTTGACACGTGGCTTA | -0.1 |
| AGTGTCACGTGATTAA | 0.15 |
| AACTTCACGTGTGGAG | 0.35 |
| GTGTTCACGTGCGGAA | 0.1 |
| CAAGGCACGTGGGGGC | -0.34 |
| TGTTTCACGTGATCTG | 0.3 |
| TCGAGCACGTGTAGTT | -0.02 |
| GATGCCACGTGTTGAG | 0.04 |
| GGGGACACGTGCTATG | 0.12 |
| GGTCGCACGTGTTTGA | 0.16 |
| CGGTTCACGTGAGTTT | 0.56 |
| TGTCTCACGTGGGCAG | 0.14 |
| GGGTGCACGTGAATCG | 0.16 |
| ATGGACACGTGGTGAT | 0.02 |
| GAGCCCACGTGGGGGG | -0.24 |
| CTGGACACGTGATGTT | 0.29 |
